Experimental data: PubChem BioAssay AID1347120 (National Center for Advancing Translational Sciences (NCATS), 2019)
In all, about 390,000 compounds went through this assay and about 930 (0.24%) were called active. This list was built around the results that the source calls inconclusive (neither active nor inactive); the mix of calls is not that of the screen. Calls follow the shape of the dose curve; as a rule, active = well fitted activation curve with a large enough effect; inconclusive = small, poorly fitted or top-dose-only effect; inactive = no such curve, though single readings can be large or run the other way. Where the call is inconclusive, the potency comes from a doubtful curve fit.

test: qHTS for Suppressors of FUS Proteinopathy: Primary screen using FUS-linked yeast assay; also: nearly all actives have a fitted effect of over 55% in size;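 as to growth rescue (activation): plate controls were DMSO vehicle for no effect and reference control for full effect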; conditions: S. cerevisiae FUS-expressing, OD600, 24 h; Potency: growth rescue; growth rescue (activation): at 76.6 µM (top of the series)
In short: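 Read-out: OD at 600 nm after 24hr at 30C, reporting rescue of FUS-induced yeast toxicity. Cells at OD 0.005 in galactose (2%) minimal medium; compounds tested in a dilution series; CP55940 titration from 92uM final as control.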
Potency is read from the fitted curve at half-maximal effect; tags tell the direction and shape of the fitted curve.

Row | SMILES | Potency | growth rescue (activation)
1 | CN(C(=O)CSc1nc2ccc(NC(=O)c3ccco3)cc2s1)c1ccccc1 | inconclusive: 35.5 µM [activator, single point] | 
2 | O=C(Nc1cccc(S(=O)(=O)N2CCCCCC2)c1)C1CCN(C(=O)c2ccc(Cl)cc2)CC1 | inconclusive: 28.2 µM [activator, partial curve, poor fit] | 
3 | CN(C)c1oc(-c2ccc(OCc3ccc(Cl)cc3)cc2)nc1C#N |  | inactive: -2.86%
4 | COC(=O)[C@]12C[C@H](CC(=O)NCc3cccs3)C(=O)N(Cc3ccccc3)C1=C[C@H](COCc1ccccc1)O[C@@H]2C |  | inactive: 43.4%
5 | O=C(CCNS(=O)(=O)c1ccccc1C(F)(F)F)N1CCN(C(c2ccccc2)c2ccccc2)CC1 | inconclusive: 39.8 µM [activator, single point] | 
6 | Cc1cc(C)cc(OCC(=O)N(C)CC(=O)Nc2ccc(Cl)c(C(F)(F)F)c2)c1 | inconclusive: 35.5 µM [activator, single point] | 
7 | CCC(CC)C(=O)c1c[nH]c(C(=O)N2CCN(c3ccccc3F)CC2)c1 | inconclusive: 0.794 µM [activator, partial curve, poor fit] | 
8 | N#Cc1nc(COc2ccc(F)cc2)oc1N1CCCC1 |  | inactive: 13.5%
9 | Cc1cccc(CNC(=O)NC2CCCCN(Cc3cccc(Cl)c3)C2=O)c1 (stereo not given) |  | inactive: 6.37%
10 | O=C(CC1CC2CCC1C2)N1CCN(S(=O)(=O)c2ccccc2[N+](=O)[O-])CC1 (stereo not given) |  | inactive: 18%
11 | CCc1ccc(NC(=O)C2CCN(c3ccc(Sc4ccc(C)cc4)nn3)CC2)cc1 |  | inactive: -41%
12 | COc1ccc([C@@]2(O)c3c(ccc(CC=C(C)C)c3O)NC(=O)[C@@H]2OC)cc1 | inconclusive: 31.6 µM [activator, single point] | 
13 | Cc1ccccc1Nc1nnc(SCC(=O)Nc2ccccc2[N+](=O)[O-])s1 |  | inactive: 40.2%
14 | COc1ccc(-c2nc(-c3ccccc3)c(-c3cccs3)[nH]2)cc1OC | inconclusive: 39.8 µM [activator, single point] | 
15 | CCCCCOC(=O)C1=C(C)N(C)C(=O)NC1c1cc(Br)c(O)c(OC)c1 (stereo not given) |  | inactive: 8.02%
16 | CC(=O)OC1CCC2(C)C(COc3ccc4ccc(=O)oc4c3)C(C)(O)CCC2C1(C)C (stereo not given) | inconclusive: 31.6 µM [activator, single point] | 
17 | COc1cc(NC(=O)[C@H]2CCCN2S(=O)(=O)c2cccc3cccnc23)cc(OC)c1OC |  | inactive: 6.22%
18 | Cc1ccccc1NC(=O)Cn1nnc(-c2ccncc2)n1 |  | inactive: 0.812%
19 | S=c1[nH]nc(COc2ccc(Cl)cc2)n1Cc1ccco1 |  | inactive: 4.11%
20 | COc1cccc(Cn2c(=O)n(-c3cc(C)cc(C)c3)c(=O)c3oc4ccccc4c32)c1 |  | inactive: -1.29%
21 | O=C(COCc1cc(-c2ccc(F)cc2)on1)Nc1cc(Cl)cc(Cl)c1 |  | inactive: -13.5%
22 | Cc1ccc2nsnc2c1S(=O)(=O)N(Cc1cc2cccc(C)c2[nH]c1=O)CC1CCCO1 (stereo not given) |  | inactive: 13.1%
23 | COc1ccc(CCNC(=O)c2cc(-c3ccc(C)cc3)nc3n[nH]c(-c4ccc(F)cc4)c23)cc1OC |  | inactive: -13.2%

Row | SMILES | Potency | growth rescue (activation)
24 | O=S(=O)(NC1CCCC1)c1cccc(S(=O)(=O)N2CCC(n3nnc4ccccc43)CC2)c1 | inconclusive: 14.1 µM [activator, partial curve, poor fit] | 
25 | COC(=O)[C@]12C[C@H](CC(=O)NCc3cccs3)C(=O)N(Cc3ccc(Cl)cc3Cl)C1=C[C@H](C1CCCC1)O[C@@H]2C | inconclusive: 11.2 µM [activator, partial curve] | 
26 | CCc1nnc2c3ccccc3nc(Nc3cc(C)cc(C)c3)n12 |  | inactive: -9.17%
27 | CCc1ccc(-c2nc3cc(NC(=O)c4ccc(C)c(C)c4)ccc3o2)cc1 |  | inactive: 10.7%
28 | COC(=O)[C@]12C[C@H](CC(=O)NCc3ccc(OC)c(OC)c3)C(=O)N(Cc3ccccc3)C1=C[C@H](COCc1ccccc1)O[C@@H]2C | inconclusive: 15.8 µM [activator, partial curve, poor fit] | 
29 | Clc1ccc(-c2nnc(C3CC3)o2)cc1 |  | inactive: 1.44%
30 | Nc1ccc(-n2c(N)c(C(=O)NCc3ccc4c(c3)OCO4)c3nc4ccccc4nc32)cc1 | inconclusive: 7.08 µM [activator, partial curve, poor fit] | 
31 | O=C(NNc1c2ccccc2nc2ccccc12)c1cc2ccccc2cc1O | inconclusive: 3.98 µM [activator, full curve] | 
32 | Cc1cccc(N(Cc2cc(=O)[nH]c3ccccc23)C(=O)CCl)c1 |  | inactive: -1.51%
33 | CNC(=S)N1N=C(c2ccc(OC)cc2)CC1c1ccc(N(C)C)cc1 (stereo not given) | inconclusive: 50.1 µM [activator, single point] | 
34 | CCOC(=O)c1cc(-c2ccc(F)cc2)n(CCC(=O)NC2CCC(C)CC2)c1C (stereo not given) | inconclusive: 31.6 µM [activator, single point] | 
35 | COc1ccc(C(=O)N2CCN(C(=O)c3ccc(-c4ccccc4)cc3)CC2)cc1OC | inconclusive: 50.1 µM [activator, single point] | 
36 | Cc1ccc(CSc2nc3c(c(=O)[nH]2)C(c2ccncc2)C2=C(CCCC2=O)N3)cc1 (stereo not given) | inconclusive: 39.8 µM [activator, partial curve, poor fit] | 
37 | CCCCc1ccc(S(=O)(=O)Nc2ccc(C)c(NS(C)(=O)=O)c2)cc1 |  | inactive: -4.52%
38 | Cc1cc(N2C(=O)C(O)=C(C(=O)c3cccs3)C2c2cccc(Br)c2)no1 (stereo not given) | inconclusive: 50.1 µM [activator, single point] | 
39 | O=C(NC1CCCCC1)c1ccc2c(c1)N(Cc1cccc(Cl)c1)C(=O)c1ccccc1S2(=O)=O |  | inactive: 22.8%
40 | C=CCOc1c(Br)cc(CNc2ccc(NC(=O)CCC)cc2)cc1OCC |  | inactive: 24.2%
41 | CNc1ccc(-c2nc(-c3ccncc3)no2)cc1[N+](=O)[O-] |  | inactive: 0.578%
42 | COc1cc(NC(=O)c2cc(-c3cc(F)ccc3OC(C)C)n[nH]2)cc(OC)c1OC |  | inactive: 9.37%
43 | O=C1C=C(c2cccc(Br)c2)C[C@@H](c2ccc(Cl)cc2)C1 |  | inactive: 10.1%
44 | COc1ccc(-c2nc(N)ncc2-c2csc(C)n2)c(O)c1 |  | inconclusive: -99% [activator]
45 | CCOC(=O)C1=C(CN2c3ccccc3CC2C)NC(=O)NC1c1ccccc1 (stereo not given) | inconclusive: 50.1 µM [activator, single point] | 
